# Inconclusive means that the source gave no clear call. Such entries were picked first, then a sample of the others. For some assays here: Potencies of inconclusive entries are doubtful fits and often do not repeat. The source made the active and inactive calls. The call rests on the fitted dose curve; in most records, active means well fitted curve in the direction sought with a large enough effect; inconclusive means small, poorly fitted or top-dose-only effect, or another doubt; inactive means no such curve, though single readings can be large; an effect the other way counts as inactive or inconclusive.
# Columns and labels:
# OV90 = experiment: Primary qHTS to identify gynecologic anti-cancer compounds using libraries of approved drugs and bioactive compounds (AID 1345084); conditions: Gynecologic cancer cell panel viability, ATPlite luminescence, 48 h; series mostly up to 57.5 µM; further: nearly all actives have a fitted effect of over 55% in size
# Method in brief: (§1)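 Five-concentration response, 48 h; readout is ATP-driven luciferase luminescence.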
# [1] = Drug repurposing screens with cells derived from glioblastoma tumor samples (AID 1345199); conditions: GBM patient neurospheres viability, ATP luminescence, 48 h; Potency: tumour line A unless noted; series mostly up to 46 µM; further: nearly all actives have a fitted effect of over 40% in size
# Method in brief: (§2)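 Four patient lines of CD133+ GBM neurospheres were screened at several concentrations; hits were retested in those lines plus three slower-growing GBM lines, using 48-hour treatment and ATP-based viability.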
# astro = experiment: as above; conditions: viability, ATP luminescence, 48 h; series mostly up to 45.9 µM
# Method in brief: as §2
# SKOV3 = experiment: Primary qHTS to identify gynecologic anti-cancer compounds using libraries of approved drugs and bioactive compounds (AID 1345084); conditions: Gynecologic cancer cell panel viability, ATPlite luminescence, 48 h; series mostly up to 57.5 µM; further: nearly all actives have a fitted effect of over 55% in size
# Method in brief: as §1
# Tov-21-G = experiment: as above; conditions: Gynecologic cancer cell panel viability, ATPlite luminescence, 48 h; series mostly up to 57.5 µM
# Method in brief: as §1
# PA-1 = experiment: as above; conditions: Gynecologic cancer cell panel viability, ATPlite luminescence, 48 h; series mostly up to 57.5 µM
# Method in brief: as §1
# JEG-3 = experiment: as above; conditions: Gynecologic cancer cell panel viability, ATPlite luminescence, 48 h; series mostly up to 57.5 µM
# Method in brief: as §1
# Tov112D = experiment: as above; conditions: Gynecologic cancer cell panel viability, ATPlite luminescence, 48 h; series mostly up to 57.5 µM
# Method in brief: as §1
# Potency means the concentration at half of the fitted maximal effect; tags describe the fitted curve by direction and shape.
compound,measurement,setting,value
CCC(=O)O[C@]1(C(=O)SCF)[C@H](C)C[C@H]2[C@@H]3C[C@H](F)C4=CC(=O)C=C[C@]4(C)[C@@]3(F)[C@@H](O)C[C@@]21C,Potency,OV90,inactive
same,Potency,[1],inactive
same,Potency,astro,inactive
COc1nc(C)cnc1NS(=O)(=O)c1cccnc1-c1ccc(-c2nnco2)cc1,Potency,SKOV3,"inconclusive: 39.8 µM [rising, single point]"
NS(=O)(=O)c1cc2c(cc1Cl)NC=NS2(=O)=O,Potency,OV90,"inconclusive: 31.6 µM [cytotoxic, single point]"
same,Potency,Tov-21-G,inactive
same,Potency,[1],"inconclusive: 35.5 µM [inhibitor, partial curve, poor fit]"
COc1ccc(C2(C#N)CCC(C(=O)O)CC2)cc1OC1CCCC1 (stereo not drawn),Potency,OV90,inactive
same,Potency,PA-1,inactive
same,Potency,[1],"inconclusive: 11.2 µM [inhibitor, partial curve, poor fit]"
Cc1ccc(-c2cc(C(F)(F)F)nn2-c2ccc(S(N)(=O)=O)cc2)cc1,Potency,JEG-3,inactive
same,Potency,[1],active: 8.91 µM
Cc1cccc(CN2CCN(C(c3ccccc3)c3ccc(Cl)cc3)CC2)c1 (stereo not drawn),Potency,OV90,"inconclusive: 25.1 µM [cytotoxic, single point]"
same,Potency,[1],active: 5.62 µM
COc1cc2nc(N3CCN(C(=O)C4COc5ccccc5O4)CC3)nc(N)c2cc1OC (stereo not drawn),Potency,OV90,"inconclusive: 39.8 µM [cytotoxic, single point]"
same,Potency,SKOV3,"inconclusive: 22.4 µM [cytotoxic, partial curve, poor fit]"
Nc1ncn([C@H]2C[C@H](O)[C@@H](CO)O2)c(=O)n1,Potency,PA-1,"inconclusive: 22.4 µM [cytotoxic, partial curve, poor fit]"
same,Potency,Tov112D,"inconclusive: 39.8 µM [cytotoxic, single point]"
same,Potency,[1],inactive
CCCCC(F)(F)[C@@]1(O)CC[C@H]2[C@H](CC(=O)[C@@H]2CCCCCCC(=O)O)O1,Potency,PA-1,inactive
same,Potency,SKOV3,inactive
same,Potency,[1],"inconclusive: 11.2 µM [inhibitor, partial curve]"
c1ccc(CNc2nc(N3CCOc4ccccc43)nc3c2CCCC3)cc1,Potency,OV90,inactive
same,Potency,SKOV3,inactive
COc1cccc(N(C)C(=S)Oc2ccc3c(c2)CCCC3)n1,Potency,OV90,inactive
same,Potency,astro,"inconclusive: 35.5 µM [inhibitor, partial curve]"
CN1CCN(c2c(F)cc3c(=O)c(C(=O)O)cn(CCF)c3c2F)CC1,Potency,PA-1,inactive
same,Potency,[1],inactive
C[C@H](c1ccc(F)cc1CCCC(=O)O)N(c1cc(F)ccc1F)S(=O)(=O)c1ccc(Cl)cc1,Potency,PA-1,"inconclusive: 22.4 µM [rising, partial curve, poor fit]"
same,Potency,SKOV3,"inconclusive: 10 µM [rising, partial curve, poor fit]"
CN(C)c1nc(Cc2ccc(NC(=O)c3ccc(C(F)(F)F)cc3)cc2)nc(N(C)C)c1CC(=O)O,Potency,OV90,inactive
same,Potency,SKOV3,"inconclusive: 3.16 µM [rising, single point]"
CNC(=O)c1c(-c2ccc(F)cc2)oc2cc(N(CCO)S(C)(=O)=O)c(C3CC3)cc12,Potency,SKOV3,inactive
CCC1(C)CC(=O)NC1=O (stereo not drawn),Potency,OV90,"inconclusive: 3.55 µM [cytotoxic, partial curve, poor fit]"
same,Potency,[1],inactive
CCN(CC)CCOc1ccc(Cc2ccccc2)cc1,Potency,OV90,"inconclusive: 39.8 µM [cytotoxic, single point]"
same,Potency,PA-1,"inconclusive: 39.8 µM [cytotoxic, single point]"
same,Potency,SKOV3,"inconclusive: 44.7 µM [cytotoxic, partial curve, poor fit]"
same,Potency,astro,active: 22.4 µM
CC(C)c1nc(CN(C)C(=O)N[C@H](C(=O)N[C@@H](Cc2ccccc2)C[C@H](O)[C@H](Cc2ccccc2)NC(=O)OCc2cncs2)C(C)C)cs1,Potency,OV90,inactive
same,Potency,[1],"inconclusive: 11.2 µM [inhibitor, partial curve]"
same,Potency,astro,"inconclusive: 31.6 µM [inhibitor, partial curve]"
Cc1ccccc1C(C(=O)NC1CCCCC1)N(C(=O)CNc1ccc(C#N)cc1)c1cccc(F)c1 (stereo not drawn),Potency,PA-1,"inconclusive: 0.891 µM [rising, full curve, poor fit]"
Cc1c(C(=O)Nc2ccc(N3C[C@@H](C)O[C@@H](C)C3)nc2)cccc1-c1ccc(OC(F)(F)F)cc1,Potency,OV90,inactive
same,Potency,PA-1,"inconclusive: 39.8 µM [cytotoxic, single point]"
same,Potency,SKOV3,inactive
COCCCOc1ccnc(CS(=O)c2nc3ccccc3[nH]2)c1C (stereo not drawn),Potency,OV90,"inconclusive: 31.6 µM [cytotoxic, partial curve, poor fit]"
same,Potency,PA-1,"inconclusive: 2.82 µM [cytotoxic, partial curve, poor fit]"
same,Potency,SKOV3,"inconclusive: 7.08 µM [cytotoxic, full curve, poor fit]"
same,Potency,Tov-21-G,"inconclusive: 39.8 µM [cytotoxic, single point]"
same,Potency,Tov112D,"inconclusive: 35.5 µM [cytotoxic, single point]"
same,Potency,astro,active: 22.4 µM
CC(C)(CO)[C@@H](O)C(=O)NCCC(=O)O,Potency,[1],"inconclusive: 35.5 µM [inhibitor, partial curve]"
Nc1cccc2c1CN(C1CCC(=O)NC1=O)C2=O (stereo not drawn),Potency,SKOV3,inactive
same,Potency,[1],inactive
O=C(O)c1cccnc1,Potency,[1],"inconclusive: 6.31 µM [inhibitor, single point]"
O=C(O)c1cn(C2CC2)c2cc(N3CCNCC3)c(F)cc2c1=O,Potency,SKOV3,inactive
same,Potency,[1],"inconclusive: 0.0355 µM [inhibitor, full curve, poor fit]"
COc1ccc(CC2c3cc(OC)c(OC)cc3CC[N+]2(C)CCC(=O)OCCCCCOC(=O)CC[N+]2(C)CCc3cc(OC)c(OC)cc3C2Cc2ccc(OC)c(OC)c2)cc1OC (stereo not drawn),Potency,[1],inactive
CN(C)CCc1c[nH]c2ccc(C[C@H]3COC(=O)N3)cc12,Potency,Tov-21-G,inactive
same,Potency,[1],"inconclusive: 0.0891 µM [inhibitor, full curve, poor fit]"
CN(C)C(=O)COC(=O)Cc1ccc(OC(=O)c2ccc(N=C(N)N)cc2)cc1,Potency,SKOV3,"inconclusive: 3.16 µM [cytotoxic, partial curve, poor fit]"
same,Potency,Tov-21-G,inactive
same,Potency,[1],"inconclusive: 11.2 µM [inhibitor, partial curve, poor fit]"
CN(C)CCN(Cc1ccc(Cl)cc1)c1ccccn1,Potency,SKOV3,inactive
same,Potency,[1],active: 10 µM
same,Potency,astro,inactive
N=C(N)c1ccc2cc(OC(=O)c3ccc(N=C(N)N)cc3)ccc2c1,Potency,SKOV3,"inconclusive: 39.8 µM [rising, single point]"
same,Potency,[1],"inconclusive: 35.5 µM [inhibitor, partial curve, poor fit]"
O=S(=O)(O)CCS,Potency,SKOV3,inactive
CCCCn1c(=O)n(Cc2ccccc2F)c(=O)c2[nH]c(Cc3ccc(NC(C)=O)cc3)nc21,Potency,SKOV3,"inconclusive: 0.251 µM [cytotoxic, single point]"
same,Potency,Tov112D,inactive
CC1=C(C(=O)Nc2cc3cn[nH]c3cc2F)C(c2ccc(C(F)(F)F)cc2)CC(=O)N1 (stereo not drawn),Potency,Tov-21-G,inactive
CN(C)c1nc(N(C)C)nc(N(C)C)n1,Potency,SKOV3,"inconclusive: 7.94 µM [rising, partial curve]"
Cc1ccc(S(=O)(=O)NC(=O)NN2CC3CCCC3C2)cc1 (stereo not drawn),Potency,[1],"inconclusive: 14.1 µM [inhibitor, single point]"
CN(C)c1nc(Cc2ccc(NC(=O)c3ccc4ccccc4c3)cc2)nc(Cl)c1CC(=O)O,Potency,SKOV3,"inconclusive: 1.41 µM [rising, partial curve]"
same,Potency,Tov-21-G,inactive
COc1ccc(CCN2CCN(CCCc3ccccc3)CC2)cc1OC,Potency,SKOV3,inactive
same,Potency,Tov-21-G,"inconclusive: 31.6 µM [cytotoxic, single point]"
CCCc1nn(C)c2c(=O)[nH]c(-c3cc(S(=O)(=O)N4CCN(C)CC4)ccc3OCC)nc12,Potency,SKOV3,"inconclusive: 2.82 µM [cytotoxic, partial curve, poor fit] and inactive"
O=C1C(c2c(O)[nH]c3ccccc23)=Nc2ccccc21,Potency,SKOV3,inactive
COc1ccc2c(OCc3nnc4ccc(-c5ccccc5)nn34)ccnc2c1,Potency,SKOV3,"inconclusive: 39.8 µM [rising, single point]"
CC(C)(C)C(=O)Oc1ccc(S(=O)(=O)Nc2ccccc2C(=O)NCC(=O)O)cc1,Potency,SKOV3,"inconclusive: 28.2 µM [rising, partial curve]"
same,Potency,Tov112D,inactive
CC1=NN(c2ccccc2)C(=O)C1,Potency,SKOV3,"inconclusive: 28.2 µM [rising, single point]"
same,Potency,[1],inactive
Cc1cc(NS(=O)(=O)c2ccc(N)cc2)no1,Potency,[1],inactive
c1cc(OCCN2CCCCC2)cc(-c2n[nH]c3ccc(-c4ncn[nH]4)cc23)c1,Potency,SKOV3,"inconclusive: 39.8 µM [cytotoxic, single point]"
COc1c(Cl)cc2c([nH]c3cnccc32)c1NC(=O)c1cccnc1C,Potency,SKOV3,"inconclusive: 17.8 µM [cytotoxic, single point]"
CCCOc1ccc(C(=O)OCCN(CC)CC)cc1N,Potency,[1],active: 14.1 µM
NC(=O)c1cccnc1,Potency,Tov112D,inactive
c1ccc(-c2oc3ncnc(NC[C@@H]4CCCO4)c3c2-c2ccccc2)cc1,Potency,Tov112D,"inconclusive: 35.5 µM [cytotoxic, partial curve, poor fit]"
COc1cc2c(cc1OC)CC(=O)N(CCCN(C)C[C@H]1Cc3cc(OC)c(OC)cc31)CC2,Potency,[1],active: 11.2 µM
CCN1CCCC1CNC(=O)c1cc(S(=O)(=O)CC)c(N)cc1OC (stereo not drawn),Potency,SKOV3,"inconclusive: 7.94 µM [rising, full curve, poor fit]"
same,Potency,[1],"inconclusive: 31.6 µM [inhibitor, partial curve]"
O=C(c1ccc(F)cc1)C1CCN(CCn2c(=O)[nH]c3ccccc3c2=O)CC1,Potency,Tov-21-G,inactive
same,Potency,astro,"inconclusive: 20 µM [inhibitor, partial curve]"
C[C@H](O)[C@@H]1C(=O)N2C(C(=O)O)=C(S[C@@H]3CN[C@H](CNS(N)(=O)=O)C3)[C@@H](C)[C@@H]12,Potency,SKOV3,"inconclusive: 10 µM [rising, partial curve]"

# From PubChem BioAssay (NCATS)
